Results published in the RNAGym collection of RNA variant scans (doi:10.7554/elife.90254).
The source gives no read counts; variants with many changes may rest on few reads.

B1: LINE1-mini (parent)
chain: GGCAGAGCUCAACACAGCGUGGCAAAGUGGCUGUGGCUAGACUGCC

Variants of: B1
Assay: self-cleavage, relative activity (ratio to wild type); higher = more cleavage; in vitro, sequencing; the parent is a self-cleaving ribozyme

Variant | self-cleavage
GGCUGAGCUCAACACAGUGUGGCAAAGUGGCUGUGGCUAAACGGCC | 0.04
GGCAGAUCGCAAUACAGCGUGGCAAAGUGGCUGUGGCUAGACUGCC | 0.2
GGCAGAGCUCAAUACAGCGUGGCAAAGUGGCUGCGACUAGACUGCG | 0.06
UCCCGAGCUAAACACAGCGUGGCAAAGUGGCUGUGGCUAGACUGCC | 0.02
GGCAGAGCUCAACACAGCGUGGCAGAGAGGAUGUAGCUAGACUGCC | 0.18
GGCGGAGCUCAACACAGCGUGGCAAAGUGGCUUUGGCUGGACUGCC | 0.48
GGCAGAGCUCAACACACCGUGACAAAGUGGCUGUGGCUAGACUGCA | 0.11
GGCACAGCUCAACACAGCGUGGCAAAUUAGCUGUGGCUAGACUGCC | 0.08
GGGAGAGUUCAACGCAGCGUGGCAACGUGGCUGUGGCCAGAAUGCC | 0.03
GGCAGAGCUCAACACAGCGGGGCAAAGUGGCUGUGGCUAUUCUGGC | 0.03
GGCUGAGCUCAACACAGCGGGGCAAAAUGCCUGUGGCUAGACUGCC | 0.03
GGCAGAGCACAACACAGCGAGGCAAAGUGGUUGUGGCUAGACUGCC | 0.02
GGCGGAUCUCAACACAGCGUGGCAAAGGGGCUGUGGCUAGACUGCC | 0.03
GGCAGAGCUCAACACAGCGUGACAAAGUGGCUGUGGCUUGACUUCC | 0.17
GUCAGAGGGCAACACAGCGUGGCAAAGUGGCUGUGGCUAGACCGUC | 0.01
GGCAGAGCUCAGCACAGCGUGGCAAAGUUGCUGUGGCUAGACUGCU | 0.03
UGCAUAGCUCAACACAGCGUGGCAAAGUGGCUGUGGAUAGACUGCC | 0.02
GGCAGAGCUAAUCACAGCGUGGCAAAGUGCCUGUGGCUAGAAUGCC | 0.01
GGCAGAGCUCAACACAGCGUGGCAAAGUGGCAGUGGCUAAACUCCC | 0.07

Variant | self-cleavage
GGCAGGGCGCAACACAGCGUGCCAAAGUGGGUGUGGCUAGACUGCC | 0.05
GUCAGAGCGCAACACAGCGUGGCAAAGUGCCUGAGGCUAGACUGCC | 0.01
GGCAGCGCUCAAACCAGUGUGGCAAAAUGGCUGUGGCUAGACUGCC | 0.17
GGCAGAGCUCAUCAUAGCGUGGCAAAGGGGCUGUGACUAGACUGCC | 0
GGCAGAGGACAACACAGCGUGGUAAAGUGGCUGUGGCUAGACUGCC | 0.11
CGCAAAGCUCAACAAAGCGUGGCAAAGUGGCUGUGGCUAGACUUCC | 0.04
GGCUGAUCUCAACACAGCGUGGCAAAGUGGCUGUGGCUAGACUCCC | 0.14
GGCGGAGCUCAACACAGCGUGGCAAAGUGGCUGUGGCUAAACUGGC | 0.15
GACAGAGCUCAACACAGCGUUGCAAAGUGGCUGUGUCUAGACUGCC | 0.06
GGUAGAGCUCAACACGACGUGGCAAAGUCGCUGUGGCUAGACUGCC | 0.05
GGCAUAGCUCAACACAGCGUGGCAAAGUGGCUGUGCCUUGACUGCC | 0.05
GGCAGAGUUCAACACAGCGUGGCAAAGUGUCUGUGGCUAGACGGCC | 0.11
GGCAGAGCACAACACUGCGUGGCAUAGUGGCUGUGGCUAGACUGCC | 0.02
GGCAGAGCUCAACACAGGUUGGCAAAGUGGCCGUGGCUAGACUCCC | 0.01
GGCAGAGCUCAACACAGCGUGGCACAGUUGCUGUGACUAGACUGCC | 0.17
UGCAGAGCUCAACACAGCGUGGCACAGUUGCAGUGGCUAGACUGCC | 0.02
GGCAGAGCUCAACACAGCGCGGCAAGGUGGCUGUGGCUAGACUCCC | 0
GGCACAGCUCAACACAGCGUGGCAAAGUGGCUGUGGCAAGCCUGCC | 0.04
CGUAGAGCUCAACACAGCGUGGCAAAGUGGCUGUGGCUAGACUGUC | 0.06

Variant | self-cleavage
GGCAGAGUUAAACACAGCGUGGCUAGGUGGCUGUGGCUAGACUGCC | 0.02
GGCAGCGCUCAACACAACGUCGCAAAGUGGCUGUGGCUAGACUGCC | 0.18
GGCAGAGCUCAACGCAUCGUGGCAAAGUGGCUGUGGCUAUACUGCC | 0.34
GGCAGAGCUCAACACAGCCUGGCAAACUGACUGUGUCUAGACUGCC | 0.05
GGCAGAGCUCUACACAGCGAUGAAAAGUGGCUGUGGCUAUACUGCC | 0.01
GGCAGAGCUCACCACAGCGUAGCAAAGUGGCUGUGGCUAGACCGCC | 0.06
GGCAGAGUUCAACACAGCGUGGCAAAGUGGCUUUGGCUAGACCGCC | 0.01
GGCAGAGCUAAACAAAGCGAGGCAAAGUGGCUGUGUCUAGACUGCC | 0.02
GGCAGAGCUCAACACAGCGUGGCAAAUUGGCUUUGGAUAGACUUAC | 0.05
GGCAGAGCUCAACACACCGUGGUAAAGUGGUUUUGGCUAGACUGCC | 0.08
GGGAGAGCUCAACACAGUGUGGCAGAGUGGCCGUGGCUAGACUGCC | 0.04
GGCAGAGCUCAACACAGCGUGGCAAAGAAGCUGUGGAUAGACUGCC | 0.07
GUCAGAGCUCAACACAGCGUGGCAAAGUGGCUGUUGCUAGACUCCC | 0.05
GACAGGGCUCAACACAGCGUGGCUAAGUGGCUGUUGCUAGACUGCC | 0.6
GGCAGAGUUAAAAACAGUGUGGCAAAGUGGCUGUGGCUAGACUGAU | 0.02
GGCAGAGCUAAACACAGCGUGGCAAAGUGGCUGUGGCUAGAUUCCC | 0.03
GGCUGAGCUCAACACCGCGUGGCAAAAUGGCUGUGGCUAGACUGCC | 0.03
GGCAUAGCUCAACCGAGCGUGGCAAAGUGGCUGUGUCUAGACUGCG | 0.01
